# Measured values taken from the supplement of paper PMC12632987.
# Over roughly 4,500 sequences, “median log2 fold change of GCK-ALFA target abundance (FLAG IP / Myc IP barcode read proportion)” has its median near 0.078; the lowest 2% begin near -0.6. Some of the results follow.
# B1: GBRAP_52_6357 (protein)
# chain: KLEEALALLERALEAMLAGREDEARAILREIVETYDDETILAAFERLAEKILGKSVEEAEAFLDLALLLADVMDELGRDEAVGDEIEAIAAKAYMTVLEK
# B2: GBRAP_78_6621 (protein)
# chain: ELEELLEKAIEKLNKAAKLALKLKTPKADELLGELVDAMTDLEESEEEGGDLEKLEEALKHIEKAIKLAKELGNEELVKELEEAKKLVEKAIELKKKELE
# B3: GBRAP_184_5147 (protein)
# chain: MTLKAAIEAETVEEAIKKAKEVFKEAKAKGADLTLAIFAEGFSVEEVKELAEKVKKLADEYGLTNATIILEVEANEEEADKVIKAADEAGVRVVVALLEE
# B4: GBRAP_128_3439 (protein)
# chain: SQEELLAKALALLDEIVASDVETAAKLAKELAELLGQLDEESREKVVKYFEEKAKKLTEEKLEAISDALREQVPKLDPLTANALNEMMVELGERILELEE
# B5: GBRAP_128_3252 (protein)
# chain: MNAEVVAQAKAFVEALKNSDAATRKAIAAAFAAWLLSLSDEDAAQAVAVVKERLPELSVEDLDILADALRAAMPAASPEKANLLADLEVEALNEAEEKEE
# B6: GBRAP_14_3823 (protein)
# chain: TAALTALIDAGFAALTATLSDIVPAHAAEIAALVDAVRAALLATIAATGDVAAAVDAARAALLAGLEALLADAPAEDRTAALAAARVEMAELEAELDEAE
# B7: GBRAP_160_4022 (protein)
# chain: SESVEEIIADFGEELDLIAAHADEMDVDTLAGALRTAVGQAIMDAAENPDMADWTREEVDALDALADEAAAVMGTGDPAARRAALERLREAVAAAVKKAA
# B8: GBRAP_83_6871 (protein)
# chain: AEEITVATTGDHIESAVDAAIDLSKNEGYDVTLEIIATPEQRDAVLAAVRRLAEAGVTMEIVIVLRGATPEQAAALEAEIRAILAAAGVDNTIEVILEEP
# B9: GBRAP_52_6325 (protein)
# chain: MEEKIKKYAEELYAAIVAGDKEKAYALAEEAVEELTPEEILEMAKIVAEKIATEDDEVHERAAEVFEYLADLVIEKKGDEKTAAEILGIYAKTLYAAELK
# B10: GBRAP_160_4803 (protein)
# chain: NPRVDAVAALFREALDEALAMSEGESVEERANIFDVETYTAILEAEERGLLNDEEEEVAVAVADALVAEVRANPDLTPEQLAALAAAAVAELRARLEALA
# B11: GBRAP_160_4279 (protein)
# chain: SEKLLELAEELEEDREEILSLVDEISAEEVRTLAVTDLGSILLEAIDLELLSDEEEDELAKIIDDLDAELAAAADASPAERRAIITRHYDKAIELLRKAA
# B12: GBRAP_125_3137 (protein)
# chain: KREALIALARALAEAFGLSEEDIAELMELAERFDPGQTIVAVLLAAGFEEAAELAERVLPRLTEEEARELRALAEELRDAPLEEFRARLTARLEELLARQ
# B13: GBRAP_160_4626 (protein)
# chain: SEKLKKAKERIEEEAEFVLSLVDEVDVETLAHFLDTEFGSTILELLEEGLISEELADELMEIVDEAVDYLLAHPDLTPEERRELIEKTREEMIKTLEKHY
# B14: GBRAP_160_4255 (protein)
# chain: AAKVDEIAADLAAEMDDAIAEAAELTPEELAALIAGTIGSAIMELIELGLITDEQEDELIALEDQAVAAALAKDELTLDELRARLQALRDAILAVLEKAK
# B15: GBRAP_128_3576 (protein)
# chain: SDEEILEKAKELIKKIIESDVEEAKKYAEELAKLLKEADPETREKIVELILEALPKLSVEKLEVLADVFREQRPKADPETANLLAEIEVEALNEAVEKEE
# B16: GBRAP_74_6541 (protein)
# chain: MEEKVKKIKELIEEGKFEEAFELTKEIIRNEDPETAVKAMEVLTKGVIEHKEELTLEEAELLGEVIVELYLRVPDELISDELAKLINETLAIIMEIEEKA
# B17: GBRAP_52_6382 (protein)
# chain: EVEKAAKLLREAIELIIEGGEEEEIRKLAKEISKFSEEVIEKAAELVAEEILKLSKEEAEKVLDATFKLADILIEVGIPEEIASLIESTIGKAVYQRLQA
# B18: GBRAP_78_6575 (protein)
# chain: EVEELVDKAIELLGKAGSLLSKIDTEEAQEILDLVIDAMSDLLEAEENGFDLKLIEEALKKVEEALKLVKKIDTEEAKEIAKLLEEAKKYLEEAIKLLKK
# B19: GBRAP_128_3246 (protein)
# chain: MQEELLEEAKEIIDEIKEVDEERAAELTEELLELLKELDEESREEVAEYFEEKLKELTAEKLEVVADVIRERRGELDPYTAALVAGVEIDALELAEELEE
# B20: GBRAP_160_4163 (protein)
# chain: MEEAEELIKEVEEETKEAIELIEGESIEQRKVIIAGHFGVIIMTLFESDVVSDEVVDFAVELRDELVKWIDENPDASLEEIKKKIKEAEKKIKEKIKKDA
# B21: GBRAP_57_6453 (protein)
# chain: MSRLEKVEEKAEETKELIEKNAPKEEIEESVRELVSLLSEETLLDVALILDPTTDPDASREELEEHIVKLIMEALETKGKEAAFRMIDLIVGQKEMEEIE
# B22: GBRAP_125_3079 (protein)
# chain: ADAAALADLAALARALGLSEDDVAELVALAAASSLKQTLIALFMAEGWEEVADALEKLTEEQAKAVLAAVAAYLAAHPDATPEEVRARALALARAALAAA
# B23: GBRAP_166_4886 (protein)
# chain: SKEEEVEELLKKAEEYIKKIPSANEEEKQELVFEAAEALAKILELSPNNEEEHEKITKLIAELIKAVGDPTLVRGALGSNISMDEELIDKLDELLEKALK
# B24: GBRAP_83_6926 (protein)
# chain: MEEIVVAANGDNVQAAFDAAIDLAKNEGYKVSLDVIITREDIPALKEAFEKLAKAGVNVELRILAVGMTEEEAKALEKELKEIAKKYGVEVKVEVEVVEA
# B25: GBRAP_11_2868 (protein)
# chain: KKEKLEELAKLVKEAIEKLEKLLKEGVDNEELRKEIKKLLKEALKLAEKYASPAVAELLKIALEDLEKAEEDPENAKEYVERALAALRVAHGDLLLEIDE
# B26: GBRAP_160_4229 (protein)
# chain: SETVKKIVAITRESLEEALELIEGETPEERRVILDVTHGEILLEVDEIEEATDEMEEVVDESVEETRERLLAARDATPEEKRAIVEEGVRELEERLKEVE
# B27: GBRAP_139_3698 (protein)
# chain: SALEKKIEEAKELTKKMKENEEESIDKIVELIKSSSLEEAEKIVEAIAEELSELPLDEAEELADKLLERIEEKIEDEDKVDLAEAILNGALARKAYQEEL
# B28: GBRAP_160_4120 (protein)
# chain: SEKLLKTAKDNAEDFEETIEEIEDLSNEEAGTLAIVTLGEAILDFSELDGEFEEEEEFAEELMDELRETEKTDPEKLKEKSLEKLKEAKERFKKKAKELE
# B29: GBRAP_128_3316 (protein)
# chain: MNEEKLAKAKELIEKLKKADLETLRKLTREIVELMGTATPEEQEIIAELFEEGLKKLSAEKLEAVADVLREQMPTLDPDTANIVADLEVEALNLAEEKEE
# Target: GABARAP, O95166
# Sequence (O95166 whole entry, the tested form may be a part): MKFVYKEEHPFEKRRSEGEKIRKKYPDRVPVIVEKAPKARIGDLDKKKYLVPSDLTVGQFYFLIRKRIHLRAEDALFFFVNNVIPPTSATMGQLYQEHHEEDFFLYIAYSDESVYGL
# Assay: median log2 fold change of GCK-ALFA target abundance (FLAG IP / Myc IP barcode read proportion) (log2 ratio); each designed protein is fused to an ALFA-tag nanobody in HEK293 cells to bring the named protein to FLAG-tagged glucokinase (GCK); Myc marks an untargeted standard; higher = target protein stabilised (more abundant)
# Conditions: target protein: 3xFLAG-MCP-GCK-ALFA reporter; HEK293 landing pad (RPLP)
# How it was run: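 Binders fused to an ALFA nanobody were recombined as a library into HEK293 landing-pad cells, which were induced with 2 μg mL^−1 doxycycline and then transfected to express a FLAG-tagged target and a Myc-tagged standard. After 48 h, circular RNA barcodes recovered by anti-FLAG and anti-Myc immunoprecipitation of lysates were reverse transcribed, amplified and sequenced. Each binder's target abundance is the median log2 ratio of FLAG to Myc barcode read proportions, from barcodes present at ≥10^−7 in both replicates, binders carrying ≥3 barcodes per replicate, a 10^−6 pseudocount and pooled replicates.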
row,Binder,median log2 fold change
1,B1,-0.492
2,B2,0.125
3,B3,-0.0809
4,B4,0.219
5,B5,0.125
6,B6,0.109
7,B7,0.121
8,B8,0.267
9,B9,0.181
10,B10,-0.367
11,B11,-0.493
12,B12,-0.234
13,B13,-0.213
14,B14,-0.343
15,B15,0.00207
16,B16,-0.118
17,B17,0.00279
18,B18,0.122
19,B19,-0.282
20,B20,0.215
21,B21,0.289
22,B22,0.1
23,B23,0.388
24,B24,0.0202
25,B25,0.0406
26,B26,-0.135
27,B27,-0.0178
28,B28,0.187
29,B29,0.338
